{"source": "ChEMBL document CHEMBL4888484", "about": "“Replenishing the malaria drug discovery pipeline: Screening and hit evaluation of the MMV Hit Generation Library 1 (HGL1) against asexual blood stage Plasmodium falciparum ,using a nano luciferase reporter read-out” (2022)", "note": "Hit rate of the full screen: of about 150,000 compounds, about 540 (0.36%) showed an effect of 50% or more. The list shows a part of the results."}
{"system": "Plasmodium falciparum", "assay": "Primary screen in NF54 nanoGlo assay, in single point, at 2uM, 72h; a lower Z score goes with more inhibition", "assay_type": "functional, Erythrocyte", "details": "timepoint 72 hour", "units": {"% Inhibition": "%"}}
{"smiles": "CCn1nc(CO)c2c1CCN(c1ncccc1F)C2", "% Inhibition": -2, "Z score": 0.42}
{"smiles": "O=C1N[C@H]2CN(C(=O)CCN3CCCC3=O)C[C@@H]2OCc2cn(nn2)CCCOc2cc1ccc2Cl", "% Inhibition": -26, "Z score": 3.27}
{"smiles": "CCOc1cc(NC(=O)Cc2ccc(OC)cc2)ncn1", "% Inhibition": -6, "Z score": 1.09}
{"smiles": "O=C(C[C@H]1C(=O)Nc2ccccc2N1C(=O)c1ccccc1)Nc1cccc(Cl)c1", "% Inhibition": -8, "Z score": 1.1}
{"smiles": "Cc1nc(CN2C(=O)c3ccccc3C2=O)n(-c2ccccc2)n1", "% Inhibition": -2, "Z score": 0.22}
{"smiles": "COc1ccc(OC)c(-c2c([C@@H]3c4ccccc4C(=O)N3CCc3ccccc3)c3ccccc3n2C)c1", "% Inhibition": 7, "Z score": -0.89}
{"smiles": "COCCCN(C)Cc1cc2cc(C)ccc2nc1N1CCC[C@H](O)C1", "% Inhibition": -8, "Z score": 1.27}
{"smiles": "COCc1nn(C)cc1C(=O)N[C@H]1CCN(c2cc(Cl)ccc2OC)C1", "% Inhibition": 1, "Z score": -0.25}
{"smiles": "OCc1ccc(OCc2nc(C3CCCC3)no2)cc1", "% Inhibition": 23, "Z score": -2.92}
{"smiles": "Cc1cc(C)c(C#N)c(N[C@H]2COC[C@@H]2N2CCCC2)n1", "% Inhibition": -4, "Z score": 0.79}
{"smiles": "O=C(Cn1cn[n+](CC(=O)c2ccc(Cl)cc2Cl)c1)c1ccc(Cl)cc1Cl", "% Inhibition": -19, "Z score": 2.76}
{"smiles": "Cc1cncc(C(=O)N2CC[C@H](N(C(=O)c3cncc(C)c3)C3CC3)C2)c1", "% Inhibition": 0, "Z score": -0.02}
{"smiles": "Cc1cnn(C2CN(Cc3nnsc3Cl)C2)c1", "% Inhibition": 1, "Z score": -0.12}
{"smiles": "O=C(NC1CCCCCC1c1ccccc1C(F)(F)F)C1COCCO1", "note": "(stereo unspecified)", "% Inhibition": -7, "Z score": 0.77}
{"smiles": "COCCn1nc([C@@H]2CCCN2Cc2ccc(F)c(F)c2)c2c1CCOC2", "% Inhibition": -2, "Z score": 0.17}
{"smiles": "COc1ccc(N2CCN(Cc3nnc(C)s3)[C@@H](C)C2)cc1", "% Inhibition": -9, "Z score": 1.75}
{"smiles": "Cc1cc(CNC(=O)c2cn(C(C)C)nc2C)no1", "% Inhibition": 1, "Z score": -0.14}
{"smiles": "O=C(NCc1cncn1C1CC1)c1ccccc1-n1cncn1", "% Inhibition": -3, "Z score": 0.51}
{"smiles": "COc1ccc([C@H](C)N(C)Cc2nc(C)n[nH]2)c(OC)c1", "% Inhibition": -4, "Z score": 0.41}
{"smiles": "CCc1nc(CCc2ccc3c(c2)OCO3)n(-c2cccnc2)n1", "% Inhibition": -13, "Z score": 1.74}
{"smiles": "CCOc1ccccc1OCC#CCN1CCN(C)CC1", "% Inhibition": -22, "Z score": 2.39}
{"smiles": "CC(C)CN1C[C@@H](C(=O)NCc2cccc(F)c2)C[C@@H](C(=O)Nc2ccc(F)cc2)C1", "% Inhibition": 5, "Z score": -0.98}
{"smiles": "O=C1COc2ccc(Cl)cc2N1Cc1nc2ccccc2c(=O)[nH]1", "% Inhibition": -12, "Z score": 1.81}
